Reference: PubChem BioAssay AID485281 (National Center for Advancing Translational Sciences (NCATS), 2010)
The whole screen tested about 350,000 compounds, of which about 260 (0.074%) were called active. This list was built around the results that the source calls inconclusive (neither active nor inactive); the mix of calls is not that of the screen. Calls follow the shape of the dose curve; as a rule, active = well fitted inhibition curve with a large enough effect; inconclusive = small, poorly fitted or top-dose-only effect; inactive = no such curve, though single readings can be large or run the other way. Potencies of inconclusive entries are doubtful fits and often do not repeat.

Each compound was assayed against Ferritin light chain (Equus caballus) (UniProt P02791) (assay: qHTS Assay for Identification of Novel General Anesthetics). Details: apoferritin/1-aminoanthracene competitive binding, fluorescence; series mostly up to 77.5 µM.
Chain of UniProt P02791 (P02791 whole entry, looked up): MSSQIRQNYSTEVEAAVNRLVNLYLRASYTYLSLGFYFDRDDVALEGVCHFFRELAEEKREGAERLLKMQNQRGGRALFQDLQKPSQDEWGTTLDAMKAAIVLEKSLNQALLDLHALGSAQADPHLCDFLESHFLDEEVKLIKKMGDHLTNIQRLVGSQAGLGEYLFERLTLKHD
Summary of the method: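 In PBS, apoferritin at 10 uM is loaded with 1-AMA from a 50% saturated solution. After 10 min of compound exposure at ambient temperature, reduced 535 nm fluorescence indicates probe displacement.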
Also: nearly all actives have a fitted effect of over 20% in size.
Potency is read from the fitted curve at half-maximal effect; tags tell the direction and shape of the fitted curve.

SMILES | Potency
CC1(C)Cc2c(sc3nn[nH]c(=O)c23)CO1 | inconclusive: 39.8 µM [inhibitor, single point]
O=C(CSc1nccn1Cc1ccc2c(c1)OCO2)Nc1ccccc1F | inconclusive: 22.4 µM [inhibitor, partial curve]
Cc1ccc(CC(=O)Nc2ccc(C(=O)N3CCCCC3)cc2)cc1 | inconclusive: 31.6 µM [inhibitor, partial curve]
CCc1ccccc1N1C(=O)C(Cl)=C(N2CCOCC2)C1=O | inconclusive: 31.6 µM [inhibitor, single point]
O=C(CCC(=O)Nc1ccccc1Cl)NNS(=O)(=O)c1ccc(Cl)cc1 | inconclusive: 12.6 µM [inhibitor, partial curve]
S=C(NCc1ccccc1)Nc1nccs1 | inconclusive: 28.2 µM [inhibitor, single point]
CCOC(=O)C(C)N1C(=O)S/C(=C\c2ccc(-c3ccccc3C(=O)O)o2)C1=O (stereo unspecified) | inactive
OC1(Cc2ccn[nH]2)CCCCC1 | inconclusive: 39.8 µM [inhibitor, single point]
COc1cccc2sc(Nc3nnc(-c4ccc(F)cc4)o3)nc12 | inactive
Cc1ccc(CNc2ccc(N3CCOCC3)cc2)cc1 | inconclusive: 50.1 µM [inhibitor, single point]
CCn1nccc1C(=O)Nc1ccc(S(=O)(=O)NC23CC4CC(CC(C4)C2)C3)cc1 | inconclusive: 50.1 µM [inhibitor, single point]
CCCCC/C=C/C=C1/C(=O)C=C[C@@H]1C/C=C\CCCC(=O)O | inactive
O=C(CCOc1ccccc1)Nc1cccc([N+](=O)[O-])c1 | inconclusive: 39.8 µM [inhibitor, partial curve]
COc1oc(=O)c2cc(N)ccc2c1Cl | inactive
Cc1ccc(C2(C)NC(=O)N(CC(=O)c3ccc(Cl)s3)C2=O)cc1 (stereo unspecified) | inconclusive: 28.2 µM [inhibitor, single point]
CCn1c(SCC(=O)Nc2ccc3c(c2)c2ccccc2n3CC)nnc1-c1cnccn1 | inconclusive: 6.31 µM [inhibitor, partial curve]
COc1ccc(N2CSC3=C(C#N)C(c4cccc(OC)c4OC)CC(=O)N3C2)cc1 (stereo unspecified) | inconclusive: 35.5 µM [inhibitor, single point]
CCC(C)[C@H]1COCCS(=O)(=O)N1Cc1ccc(Cl)cc1Cl (stereo partly specified) | inactive
COCCn1c(COc2ccc(C)cc2)nc2ccccc21 | inactive
O=C(COC(=O)CNC(=O)C1CCCCC1)Nc1ccc(Cl)cc1F | inconclusive: 17.8 µM [inhibitor, partial curve]
COc1ccc(-c2ccc(SCC(=O)c3cccs3)nn2)cc1 | inconclusive: 15.8 µM [inhibitor, partial curve]
COc1ccc(Nc2nc3c(S(=O)(=O)c4ccccc4)nnn3c3ccc(Cl)cc23)cc1 | inactive
O=C(NCCc1ccc(F)cc1)c1cccs1 | inactive

SMILES | Potency
Oc1ccc(N=Nc2n[nH]c(-c3ccc(Cl)cc3)n2)cc1 | inconclusive: 39.8 µM [inhibitor, partial curve]
CC(C)c1ccc(NC(=O)C2CC2c2ccccc2)cc1 (stereo unspecified) | active: 35.5 µM
O=C1NC(=Nc2ccccc2Cl)S/C1=C\c1cc([N+](=O)[O-])ccc1O | inconclusive: 31.6 µM [inhibitor, single point]
COc1ccc(C(=O)NN=C(Cc2ccccc2)Cc2ccccc2)cc1OC | inconclusive: 31.6 µM [inhibitor, partial curve]
CC1CCC(C(C)C)C(=O)/C1=C/c1ccc(N)cc1 (stereo unspecified) | inconclusive: 28.2 µM [inhibitor, partial curve]
O=C(Cc1ccc(F)cc1)c1ccc(O)cc1O | inconclusive: 22.4 µM [inhibitor, partial curve]
Cc1ccc(NC(=O)CSc2ncc(-c3ccccc3)n2C(=O)c2ccccc2)cc1 | inconclusive: 35.5 µM [inhibitor, partial curve]
O=C(COc1ccc(F)cc1)N1CCCCCCC1 | inconclusive: 25.1 µM [inhibitor, partial curve]
Cc1ccc(NC(=O)NCCCc2ccccc2)cc1 | inconclusive: 35.5 µM [inhibitor, partial curve]
Cc1cc(C(=O)O)c(=O)[nH]c1C | inactive
O=C(O)Cn1c(-c2ccccn2)nc2ccccc21 | inactive
CCOC(=O)C1=C(CN2CCC(C)CC2)NC(=O)NC1c1ccc(OC(C)C)cc1 (stereo unspecified) | inconclusive: 56.2 µM [inhibitor, single point]
O=[N+]([O-])c1cccc(S(=O)(=O)NCCc2ccccc2)c1 | inconclusive: 35.5 µM [inhibitor, partial curve]
COc1cccc(CNC(=O)c2nnn(CC(=O)Nc3ccc4c(c3)OCO4)c2N)c1 | inconclusive: 8.91 µM [inhibitor, partial curve]
CCOc1ccc2c(c1)-c1c(ssc1=S)C(C)(C)N2 | inconclusive: 28.2 µM [inhibitor, partial curve]
COc1ccccc1Cn1cc(C(=O)c2ccccc2)c(=O)c2cc(OC)c(OC)cc21 | inconclusive: 22.4 µM [inhibitor, partial curve]
COc1cc(OC)c2c(c1C(CCN1CCCC1)c1ccc(N(C)C)cc1)OC(=O)CC2c1ccc(N(C)C)cc1 (stereo unspecified) | inactive
O=C(CNC(=O)c1ccc2c(c1)OCO2)N/N=C/c1cccc([N+](=O)[O-])c1 | inconclusive: 5.62 µM [inhibitor, full curve]
CCc1ccc(NC(=S)NC2CCN(Cc3ccccc3)CC2)cc1 | inconclusive: 17.8 µM [inhibitor, single point]
Cc1ccc(C(=O)N/N=C/c2cn(Cc3ccccc3)c3ccccc23)cn1 | inactive
Fc1ccc(-c2c[nH]c(=S)n2Cc2ccccc2)cc1 | inactive
ON1C2CCCCC2N(O)C1c1ccccc1C(F)(F)F (stereo unspecified) | inconclusive: 39.8 µM [inhibitor, partial curve]
CCC(=O)Nn1cnc2c(c1=O)C1(CCCCC1)Cc1ccccc1-2 | inconclusive: 35.5 µM [inhibitor, partial curve]
